Where two headings read alike, the source gives them in different places.
Molecular target: human CB2 receptor (hCB2) (Homo sapiens, UniProt P34972)
Assay: cell-based
Type: cell-based
Conditions: for +/− HCB2: agonist or inverse agonist at hCB2

Sequence of human CB2 receptor (hCB2) (P34972 whole entry): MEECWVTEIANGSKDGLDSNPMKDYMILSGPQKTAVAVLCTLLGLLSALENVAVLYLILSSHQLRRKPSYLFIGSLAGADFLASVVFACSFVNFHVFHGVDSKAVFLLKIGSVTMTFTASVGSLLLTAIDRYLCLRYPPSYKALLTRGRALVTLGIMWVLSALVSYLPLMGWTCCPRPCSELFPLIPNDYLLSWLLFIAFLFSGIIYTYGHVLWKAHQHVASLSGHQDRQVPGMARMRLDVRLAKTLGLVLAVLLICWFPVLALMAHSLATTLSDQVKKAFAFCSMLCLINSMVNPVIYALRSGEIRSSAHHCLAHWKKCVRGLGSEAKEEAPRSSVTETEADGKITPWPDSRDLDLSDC

CNC(=O)[C@@H](NC(=O)c1nc(C(=O)Nc2ccccc2)n2c1CN(C)CC2)C(C)(C)C [Compound 290, (S)-N1-(3,3-dimethyl-1-(methylamino)-1-oxobutan-2-yl)-7-methyl-N3-phenyl-5,6,7,8-tetrahydroimidazo[1,5-a]pyrazine-1,3-dicarboxamide]
EC50: > 10000 nM

O=C(Nc1ccccc1)c1nc(-c2ccccc2)n2c1CN(C(=O)C1CC1)CC2 [Compound 129, 7-(cyclopropanecarbonyl)-N,3-diphenyl-5,6,7,8-tetrahydroimidazo[1,5-a]pyrazine-1-carboxamide]
EC50 (groups >100 nM-10 μM and >10 μM, cAMP, CHO-K1 hCB2, read-out: EC50 HCB2): > 10000 nM

CNC(=O)[C@@H](NC(=O)c1nc(/C=C/c2ccsc2)n2c1CN(C)CCC2)C(C)(C)C [Compound 446]
+/− HCB2: +

CNC(=O)[C@@H](NC(=O)c1nc(-c2ccoc2)n2c1CNCC2)C(C)(C)C [Compound 12, (S)-N-(3,3-dimethyl-1-(methylamino)-1-oxobutan-2-yl)-3-(furan-3-yl)-5,6,7,8-tetrahydroimidazo[1,5-a]pyrazine-1-carboxamide]
+/− HCB2: +

C/C=C/c1nc(C(=O)N[C@H](C(=O)NC)C(C)(C)C)c2n1CCCN(C)C2 [Compound 376, (S,E)-N-(3,3-dimethyl-1-(methylamino)-1-oxobutan-2-yl)-8-methyl-3-(prop-1-enyl)-6,7,8,9-tetrahydro-5H-imidazo[1,5-a][1,4]diazepine-1-carboxamide]
+/− HCB2: +

CC(C)(C)OC(=O)N1CCn2c(-c3ccccc3)nc(C(=O)NC3CCCCC3)c2C1 [Compound 36, tert-butyl 1-(cyclohexylcarbamoyl)-3-phenyl-5,6-dihydroimidazo[1,5-a]pyrazine-7(8H)-carboxylate]
+/− HCB2: −

CNC(=O)[C@@H](NC(=O)c1nc(-c2cc(F)cc(OC)c2)n2c1CN(C)CCC2)C(C)(C)C [Compound 384, (S)-N-(3,3-dimethyl-1-(methylamino)-1-oxobutan-2-yl)-3-(3-fluoro-5-methoxyphenyl)-8-methyl-6,7,8,9-tetrahydro-5H-imidazo[1,5-a][1,4]diazepine-1-carboxamide]
+/− HCB2: +

CNC(=O)[C@@H](NC(=O)c1nc(-c2ccccc2)n2c1CN(Cc1cccnc1)CC2)C(C)(C)C [Compound 63, (S)-N-(3,3-dimethyl-1-(methylamino)-1-oxobutan-2-yl)-3-phenyl-7-(pyridin-3-ylmethyl)-5,6,7,8-tetrahydroimidazo[1,5-a]pyrazine-1-carboxamide]
EC50: > 10000 nM

CC(C)CCNC(=O)c1nc(-c2ccc(Cl)cc2)n2c1CN(C(=O)C1CC1)CC2 [Compound 131, 3-(4-chlorophenyl)-7-(cyclopropanecarbonyl)-N-isopentyl-5,6,7,8-tetrahydroimidazo[1,5-a]pyrazine-1-carboxamide]
EC50: > 10000 nM

CNC(=O)[C@@H](NC(=O)c1nc(/C=C/c2ccccc2)n2c1CN(C)CCC2)C(C)(C)C [Compound 336, (S,E)-N-(3,3-dimethyl-1-(methylamino)-1-oxobutan-2-yl)-8-methyl-3-styryl-6,7,8,9-tetrahydro-5H-imidazo[1,5-a][1,4]diazepine-1-carboxamide]
+/− HCB2: +

CNC(=O)[C@@H](NC(=O)c1nc(-c2ccc(F)cc2)n2c1CN(C)CCC2)C(C)(C)C [Compound 437, (S)-N-(3,3-dimethyl-1-(methylamino)-1-oxobutan-2-yl)-3-(4-fluorophenyl)-8-methyl-6,7,8,9-tetrahydro-5H-imidazo[1,5-a][1,4]diazepine-1-carboxamide]
+/− HCB2: +

C=C(C)c1nc(C(=O)N[C@H](C(=O)NC)C(C)(C)C)c2n1CCCN(C)C2 [Compound 441, (S)-N-(3,3-dimethyl-1-(methylamino)-1-oxobutan-2-yl)-8-methyl-3-(prop-1-en-2-yl)-6,7,8,9-tetrahydro-5H-imidazo[1,5-a][1,4]diazepine-1-carboxamide]
+/− HCB2: +

CNC(=O)[C@@H](NC(=O)c1nc(-c2ccccc2)n2c1CN(C)CC2)c1ccccc1 [Compound 207, (S)-7-methyl-N-(2-(methylamino)-2-oxo-1-phenylethyl)-3-phenyl-5,6,7,8-tetrahydroimidazo[1,5-a]pyrazine-1-carboxamide]
+/− HCB2: +

CC(C)(C)[C@@H](CO)NC(=O)c1nc(-c2ccccc2)n2c1CNCC2 [Compound 22, (S)-N-(1-hydroxy-3,3-dimethylbutan-2-yl)-3-phenyl-5,6,7,8-tetrahydroimidazo[1,5-a]pyrazine-1-carboxamide]
EC50: > 10000 nM

CNC(=O)c1ccc(-c2nc(C(=O)N[C@H](C(=O)NC)C(C)(C)C)c3n2CCCN(C)C3)cc1 [Compound 408]
EC50: > 10000 nM

CNC(=O)[C@H](CC(C)C)NC(=O)c1nc(-c2ccc(C(F)(F)F)cc2F)n2c1CN(C)CCC2 [Compound 533, (S)-3-(2-fluoro-4-(trifluoromethyl)phenyl)-8-methyl-N-(4-methyl-1-(methylamino)-1-oxopentan-2-yl)-6,7,8,9-tetrahydro-5H-imidazo[1,5-a][1,4]diazepine-1-carboxamide]
+/− HCB2: +

CN1CCn2c(-c3ccccc3)nc(C(=O)N[C@H](CO)C(C)(C)C)c2C1 [Compound 59, (S)-N-(1-hydroxy-3,3-dimethylbutan-2-yl)-7-methyl-3-phenyl-5,6,7,8-tetrahydroimidazo[1,5-a]pyrazine-1-carboxamide]
+/− HCB2: +

CNC(=O)[C@H](CC(C)(C)C)NC(=O)c1nc(-c2cc(Cl)c(F)cc2F)n2c1CN(C)CCC2 [Compound 554, (S)-3-(5-chloro-2,4-difluorophenyl)-N-(4,4-dimethyl-1-(methylamino)-1-oxopentan-2-yl)-8-methyl-6,7,8,9-tetrahydro-5H-imidazo[1,5-a][1,4]diazepine-1-carboxamide]
+/− HCB2: +

CNC(=O)[C@@H](NC(=O)c1nc(-c2ccc(C(F)(F)F)cc2)n2c1CN(C)CCC2)C(C)(C)C [Compound 330, (S)-N-(3,3-dimethyl-1-(methylamino)-1-oxobutan-2-yl)-8-methyl-3-(4-(trifluoromethyl)phenyl)-6,7,8,9-tetrahydro-5H-imidazo[1,5-a][1,4]diazepine-1-carboxamide]
+/− HCB2: +

CN1CCCn2c(-c3ccccc3)nc(C(=O)Nc3cc(C(C)(C)C)on3)c2C1 [Compound 595, N-(5-tert-butylisoxazol-3-yl)-8-methyl-3-phenyl-6,7,8,9-tetrahydro-5H-imidazo[1,5-a][1,4]diazepine-1-carboxamide]
EC50: > 10000 nM

CNC(=O)[C@@H](NC(=O)c1nc(-c2cc(C(F)(F)F)ccc2F)n2c1CN(C)CC2)C(C)(C)C [Compound 245, (S)-N-(3,3-dimethyl-1-(methylamino)-1-oxobutan-2-yl)-3-(2-fluoro-5-(trifluoromethyl)phenyl)-7-methyl-5,6,7,8-tetrahydroimidazo[1,5-a]pyrazine-1-carboxamide]
+/− HCB2: +

CNC(=O)[C@@H](NC(=O)c1nc(CCCN2CCCC2)n2c1CN(C)CCC2)C(C)(C)C [Compound 502, (S)-N-(3,3-dimethyl-1-(methylamino)-1-oxobutan-2-yl)-8-methyl-3-(3-(pyrrolidin-1-yl)propyl)-6,7,8,9-tetrahydro-5H-imidazo[1,5-a][1,4]diazepine-1-carboxamide]
+/− HCB2: +

CC(C)(C)C(=O)N1CCn2c(-c3ccccc3)nc(C(=O)NC3C4(C)CCC(C4)C3(C)C)c2C1 (centres unmarked) [Compound 123, 3-phenyl-7-pivaloyl-N-(1,3,3-trimethylbicyclo[2.2.1]heptan-2-yl)-5,6,7,8-tetrahydroimidazo[1,5-a]pyrazine-1-carboxamide]
EC50: > 10000 nM

— patent publication US7517874B2 (priority 2007, dated 2009)
